# Source: the RNAGym collection of RNA variant scans (doi:10.1093/nar/gkz1192)
# The source gives no read counts; variants with many changes may rest on few reads.
# B1: CPEB3 Ribozyme (parent)
# chain: UAACAGGGGGCCACAGCAGAAGCGUUCACGUCGCAGCCCCUGUCAGAUUCUGGUGAAUCUGCGAAUUCUGCUGUAUAUCUC
# Variants of: B1
# Test: self-cleavage, relative activity (ratio to wild type); higher = more cleavage; in vitro, sequencing
# Outline: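 Relative activity was defined as the cleaved/total read fraction for a variant divided by the same fraction for the unmutated ribozyme. CPEB3 self-cleaving ribozyme libraries were made by rounds of error-prone PCR, barcoded, and transcribed in vitro with T7 RNA polymerase for 5 hours at 37°C, and cleavage ran through transcription plus a 15 min DNase I step before EDTA. Illumina sequencing of template-switched reverse transcripts gave the reads, and DNA sequencing mapped the barcodes. Averages come from three batches, using variants with at least 5 reads.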
row,Variant,self-cleavage
1,A3U A13G A65G U80C,0.47
2,A3G G10A C37U A45G U72A,0.28
3,A3U A15G A28G,0.58
4,A3G C11G U25C U72C,0.4
5,A3U A13U U60A U72C,0.69
6,A3G U25G A65G U72C,0.5
7,A3G C12A C17U A28C C38G U41A,0.1
8,A3G C12A U48C U49C U54A,0.31
9,A3G G36A A47G,0.19
10,A3G G30A U48A,0.51
11,A3U C11A A56G,0.14
12,A3G U31A U41A U60C U67C U74C,0.19
13,A3U A15G C39U U43A U69C,0.23
14,A3G U43C U54A A57U U58A,0.15
15,A3G U41A U76C,0.63
16,A3G G19U U72C,0.43
17,A3G U26A G46U A77G,0.37
18,A3G U41C U49C U67C,0.17
19,A3G U25G U31C G36U C62U,0.28
20,A3G G9A A15U G70U,0.08
21,A3G C34A C40U U51C U54C U76A,0.1

row,Variant,self-cleavage
1,A3G U25C G30A A45G U49A A65U U66C,0.13
2,A3G G36C A57C U60C,0.19
3,A3U A5G A45U U54A A65G,0.1
4,A3G U25A C34U A45G U67A C68U U72A,0
5,A3G U26A G30C U49C,0.3
6,A3G U48C U51A A56G U67A G73A U74C,0.09
7,A3G G10A U49A U72C,0.08
8,A3G A45G U69C U74C,0.28
9,A3G C11G C14G A57G A65G U66C U69A,0.1
10,A3G G9A C17U U60C,0.1
11,A3U A15G U60A,0.37
12,A3G C12U U49C U54A A64C U72C U78C,0.3
13,A3G U60A C79U,0.79
14,A3G C17U U54A U74C,0.8
15,A3G G24A A56C,0.1
16,A3G G6A A18U U67C,0.28
17,A3G G8A U69G A77G,0.1
18,A3G U41G U54C U67C,0.16
19,A3U A35U U51C U76C,0.78
20,A3G C62U G70U,0.25
21,A3G G9A A28G A56G A65G,0.1

row,Variant,self-cleavage
1,A3U A5U A35U U54C A75G,0.63
2,A3G G10U A20G U25C U80A,0.08
3,A3G C11G U26A A28U U54C,0.14
4,A3U A13G A21G A35G A45G C62U,0.3
5,A3U A18U A20U U49C,0.12
6,A3U A13G U25C,0.54
7,A3G U60C A64G U76C,0.3
8,A3U A20G U25C U48C U54C U60G U67A,0
9,A3G G10A C11A U26C A45G U72C U80C,0.06
10,A3G G7U A20G A28U G70U,0.29
11,A3G C4U G52A C79U C81G,1.25
12,A3G G6A U31A C32U U67C A75G C81G,0.05
13,A3G U31C U41A G53U,0.47
14,A3U A13U A15U U26C,0.61
15,A3G U51A A56G A64U U69A,0.16
16,A3G U25C G30U U67C C68G,0.08
17,A3G U31C U72A,1.11
18,A3G C14G U25C U60C,0.47
19,A3U C11U U41C,0.53
20,A3G U43A G46U U51G A75U,0.26
21,A3G C23G A45G,0.5

row,Variant,self-cleavage
1,A3U A13G U51G A64G A75G,0.74
2,A3G C11A U41C U54C A64G U78C U80C,0.06
3,A3G G6A A21U C32U U72A U80A,0.37
4,A3G C12A C23U C59A U76C U80A,0.07
5,A3G G10C A15U C23G U67C U74G,0.07
6,A3U A13C C27U C81A,0.49
7,A3G G16C A75U U78C,0.65
8,A3U A21G C32A A45C G70A,0.07
9,A3G U41C U48C,0.47
10,A3U A18U A20G A45G A56C,0.24
11,A3G A45U U60C U67A,0.13
12,A3G G63A U72C,0.53
13,A3U A15G A45U A64G A65G,0.15
14,A3G U41A A47U U80C,0.36
15,A3G C12U A15G U49C U69C,0.31
16,A3G U48C U51A,0.27
17,A3U A28C A64C,0.09
18,A3G G8A A21G A57G C81U,0.09
19,A3G U26C U41G G70A U80C,0.29
20,A3U A64G U66C,0.73
